# Measured values from PubChem BioAssay AID686979 (National Center for Advancing Translational Sciences (NCATS), 2013).
# In all, about 420,000 compounds went through this assay and about 50,000 (12%) were called active. This list was built around the results that the source calls inconclusive (neither active nor inactive); the mix of calls is not that of the screen. Calls follow the shape of the dose curve; as a rule, active = well fitted inhibition curve with a large enough effect; inconclusive = small, poorly fitted or top-dose-only effect; inactive = flat fitted curve, though single readings scatter. Potencies of inconclusive entries are left out as doubtful fits.
# Test: qHTS for Inhibitors of human tyrosyl-DNA phosphodiesterase 1 (TDP1): qHTS in cells in presence of CPT; also: nearly all actives have a fitted effect of over 55% in size
# Details: chicken DT40 Tdp1-/-;hTDP1 cells + 20 nM CPT, ATP luminescence, 48 h; activity change, negative = growth inhibition: at 46.2 µM (top of the series)
# How it was run: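 Chicken DT40 Tdp1-/- cells complemented with human TDP1, 400 cells/well, exposed to compounds plus 20 nM camptothecin for at least 48 h at 37 C; viability read as ATP content by CellTiter-Glo luminescence.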
# % is scaled to controls: 0 for no effect and ±100 for the full control effect; potency is read from the fitted curve at half-maximal effect; tags tell the direction and shape of the fitted curve.
Compound,Potency,"activity change, negative = growth inhibition"
O=S(=O)(c1ccccc1)c1nc(-c2ccccc2Cl)oc1NCCCN1CCOCC1,"inconclusive [inhibitor, single point]",
CN1CCN(c2ccc(S(=O)(=O)N3CCOCC3)cc2NC(=O)CCc2ccccc2)CC1,,inactive: 0.451%
CCOc1ccc(/C=N/Nc2nncc(-c3ccccc3)n2)cc1OC,active: 16.4 µM,
O=C(OCc1cc([N+](=O)[O-])cc2c1OCOC2)c1ccc2ccccc2n1,,inactive: 20.2%
Cc1ccc(C2=NS(=O)(=O)N(C)C(C(=O)Nc3ccc(F)cc3F)=C2)cc1,active: 20.6 µM,
COC(=O)C(NC(=O)CCc1c(C)nc2c(-c3ccccc3)c(C)nn2c1C)C(C)C (centres undefined),"inconclusive [inhibitor, single point]",
Cc1ccc(Cl)cc1NC(=O)Cn1c(=O)n(CCC(=O)NCc2ccc3c(c2)OCO3)c(=O)c2sccc21,,inactive: -5.85%
CCOc1c2ccc(C(=O)NCCc3ccc(C)cc3)cc2nn1CC,,inconclusive: -14.3% [inhibitor]
CC(=O)N1c2ccc(S(=O)(=O)NCCC(=O)N(C)C3CCCCC3)cc2CC1C (centres undefined),active: 10.3 µM,
CC1(c2nnc(-c3ccccc3)o2)CC(c2ccc([N+](=O)[O-])cc2)=NO1 (centres undefined),"inconclusive [inhibitor, single point]",
CC(=O)c1ccc(Nc2cc(C)nc3ccccc23)cc1,active: 11.6 µM,
COc1ccc(-c2[nH]ncc2CN2CCCOc3c(cccc3OC)C2)c(OC)c1,,inactive: -12.9%
Oc1cccc(-c2nc3c4c(ncn3n2)-c2ccccc2CC42CCCC2)c1,active: 18.4 µM,
O=C(/C=C/c1ccccc1)NCCOc1ccccc1,,inactive: 7.65%
C(=Nc1ccc2ccccc2n1)c1cccnc1,"inconclusive [inhibitor, single point]",
CN(c1ccc(C(=O)Nc2cccc([N+](=O)[O-])c2)cc1)S(C)(=O)=O,,inconclusive: -31% [inhibitor]
O=C(CNC(=O)OCc1ccccc1)OC(c1ccccc1)c1ccccc1,"inconclusive [inhibitor, partial curve]",
O=C(NCCN1CCOCC1)c1cc(-c2ccc(Cl)cc2)on1,,inconclusive: -30.4% [inhibitor]
Cc1c(C(=O)Nc2ccc(-n3c(C)nc4ccccc4c3=O)cc2)cccc1[N+](=O)[O-],active: 13 µM,
Nc1nc(NCc2ccco2)nc(N2CCN(Cc3ccccc3)CC2)c1[N+](=O)[O-],"inconclusive [inhibitor, single point]",
Cc1ccnc(NC(=O)CCC(=O)N(CC(=O)NC2CCCCC2)Cc2cccs2)c1,,inactive: -19.9%
CC1(C(=O)O)CCCN1C(=O)c1ccc(Cl)cc1Cl (centres undefined),,inconclusive: -30.6% [inhibitor]

Compound,Potency,"activity change, negative = growth inhibition"
CC(C)Cc1ccc(S(=O)(=O)N2CCN(Cc3noc(CCC(=O)N4CCCCC4)n3)CC2)cc1,"inconclusive [inhibitor, single point]",
CCCc1cc(N2CCOCC2)n2nc(C)c(-c3ccccc3)c2n1,"inconclusive [inhibitor, partial curve, poor fit]",
COc1ccccc1C(=O)COC(=O)c1cc([N+](=O)[O-])ccc1N1CCOCC1,"inconclusive [inhibitor, partial curve]",
CCCNC(=O)CCNC(=O)[C@H](O)C(C)(C)CO,,inactive: 1.07%
CCNC(=S)N/N=C(\C)c1cc2ccccc2o1,"inconclusive [inhibitor, single point]",
O=c1[nH]c(CN2CCN(S(=O)(=O)/C=C/c3ccccc3)CC2)nc2cc(Cl)ccc12,"inconclusive [inhibitor, single point]",
Cc1ccc(CNC(=O)[C@H]2O[C@@H](n3cnc4c(N)ncnc43)[C@H](O)[C@@H]2O)o1,,inactive: -3.95%
Cc1cc(C)nc(-n2nc(C)c3c2NC(=O)CC3c2cccc(O)c2)n1 (centres undefined),"inconclusive [inhibitor, single point]",
COc1ccc2cc(C(c3nnnn3C3CCCCC3)N3CCCCCC3)c3nnnn3c2c1 (centres undefined),"inconclusive [inhibitor, partial curve]",
CC(C)(C)c1ccc(Nc2n[nH]c3ccccc23)cc1,"inconclusive [inhibitor, single point]",
Cc1cccc(CN2CCN(Cc3ccc4nonc4c3)CC2CCO)n1 (centres undefined),,inactive: -7.2%
COc1cccc(CNc2nc3cc(-c4cscc4C)sc3c(=O)n2C)c1,"inconclusive [inhibitor, single point]",
Cc1ccc(/C=N/NC(=O)CSc2nnc(-c3ccc(Cl)cc3)n2-c2ccccc2)o1,"inconclusive [inhibitor, partial curve]",
CC(=O)N1CCC(C(=O)N2c3ccccc3N=C(c3ccc(C(F)(F)F)cc3)C2C(=O)NC(C)(C)C)CC1 (centres undefined),"inconclusive [inhibitor, single point]",
CCOc1cc2c(cc1OCC)C(CC(=O)O)N(C(=O)Nc1ccccc1C(F)(F)F)CC2 (centres undefined),"inconclusive [inhibitor, single point]",
CC1CC(C)CN(C(=O)C(C)N2CCN(S(=O)(=O)c3ccc(Br)s3)CC2)C1 (centres undefined),"inconclusive [inhibitor, single point]",
Cc1ccc(C)c2[nH]c(=O)c(CCNC(=O)c3cc4ccccc4o3)cc12,active: 18.4 µM,
CCOC(=O)C(C)On1c(-c2cccc(Cl)c2)nc2ccc([N+](=O)[O-])cc21 (centres undefined),"inconclusive [inhibitor, single point]",
COCC(C)NS(=O)(=O)c1ccc(NC(=O)c2ccccn2)cc1 (centres undefined),"inconclusive [inhibitor, partial curve, poor fit]",
COc1ccc(NC(=O)c2cc3c(s2)CCC(C)C3)cc1S(=O)(=O)N1CCOCC1 (centres undefined),"inconclusive [inhibitor, single point]",
COC(=O)CSC1=NS(=O)(=O)c2ccccc21,active: 1.46 µM,
CCN(CC)S(=O)(=O)c1cccc(NC(=O)CNc2cccc(S(=O)(=O)N3CCCC3)c2)c1,active: 1.03 µM,
